Experimental data reported in patent US20230348362A1, “LIPID COMPOUNDS AND LIPID NANOPARTICLE COMPOSITIONS” (Suzhou Abogen Biosciences Co., Ltd., priority 2021, published 2023).
The name of at least one read-out is uncertain. Some entries repeat one wording, which the source may state once for all of them.

system: human erythropoietin (hEPO) mRNA; assay: Animal study: hEPO mRNA LNP tail vein injection, serum hEPO ELISA; format: in vivo; details: female ICR mice, 0.5 mg/kg tail vein injection, blood sampled e.g. 6 hours, relative to MC3 LNP

SMILES	Expression over MC3
CCCCCCCC(=O)OCC(CCCCN(CCO)CCN(CCCCC(COC(=O)CCCCCCC)COC(=O)CCCCCCC)C1CCCCCCC1)COC(=O)CCCCCCC [Compound 161]	B (≥1 and <2)
CCCCCCCC(=O)OCC(CCCCN(CC=C(C)C)CCN(CCO)CCCCC(COC(=O)CCCCCCC)COC(=O)CCCCCCC)COC(=O)CCCCCCC [Compound 162]	A (≥2)
CCCCCCC(=O)OCC(CCCCN(CCO)CCN(CCCCC(COC(=O)CCCCCC)COC(=O)CCCCCC)C1CCC1)COC(=O)CCCCCC [Compound 165]	C (≥0.1 and <1)
CCCCCCCCC(=O)OCC(CCCCN(CCO)CCN(CCCCC(COC(=O)CCCCCCCC)COC(=O)CCCCCCCC)C1CCC1)COC(=O)CCCCCCCC [Compound 166]	B (≥1 and <2)
CCCCCCCCCC(=O)OCC(CCCCN(CCO)CCN(CCCCC(COC(=O)CCCCCCCCC)COC(=O)CCCCCCCCC)C1CCC1)COC(=O)CCCCCCCCC [Compound 167]	B (≥1 and <2)
CCCCCCCCCCC(=O)OCC(CCCCN(CCO)CCN(CCCCC(COC(=O)CCCCCCCCCC)COC(=O)CCCCCCCCCC)C1CCC1)COC(=O)CCCCCCCCCC [Compound 168]	C (≥0.1 and <1)
CCCCCCCCC(CCCCCCCC)COC(=O)CCCCCN1CCC(N(CCO)CCCCCC(=O)OCC(CCCCCCCC)CCCCCCCC)CC1 [Compound 170]	A (≥2)
CCCCCCCCC(CCCCCCCC)CNC(=O)CCCCCN1CCC(N(CCO)CCCCCC(=O)OCC(CCCCCCCC)CCCCCCCC)CC1 [Compound 171]	C (≥0.1 and <1)
CCCCCCCCC(CCCCCCCC)CNC(=O)CCCCCN1CCC(N(CCO)CCCCCC(=O)NCC(CCCCCCCC)CCCCCCCC)CC1 [Compound 172]	C (≥0.1 and <1)
CCCCCCCCCCCOC(=O)CCCCCN1CCC(N(CCO)CCCCCC(=O)OCC(CCCCCCCC)CCCCCCCC)CC1 [Compound 173]	C (≥0.1 and <1)
CCCCCCCCCCCOC(=O)CCCCCN1CCC(N(CCO)CCCCCCCC(=O)OC(CCCCCCCC)CCCCCCCC)CC1 [Compound 174]	C (≥0.1 and <1)
CCCCCCCCCOC(=O)CCCCCCCN(CCO)C1CCN(CCCCCCCC(=O)OC(CCCCCCCC)CCCCCCCC)CC1 [Compound 176]	B (≥1 and <2)
CCCCCCCCCOC(=O)CCCCCCCN1CCC(N(CCO)CCCCCCCC(=O)OC(CCCCCCCC)CCCCCCCC)CC1 [Compound 177]	C (≥0.1 and <1)
CCCCCCCC(=O)OCC(COCCN(CCO)CCN(CCOCC(COC(=O)CCCCCCC)COC(=O)CCCCCCC)C1CCC1)COC(=O)CCCCCCC [Compound 178]	A (≥2)
CCCCCCCC(=O)OCC(COCCN(CCO)CCN(CCOCC(COC(=O)CCCCCCC)COC(=O)CCCCCCC)C1CCCCC1)COC(=O)CCCCCCC [Compound 179]	A (≥2)
CCCCCCCC(=O)OCC(CCCCN(CCO)CCCCN(CCCCC(COC(=O)CCCCCCC)COC(=O)CCCCCCC)C1CCCC1)COC(=O)CCCCCCC [Compound 181]	B (≥1 and <2)
CCCCCCCCCCCOC(=O)CCCCCN(CCN(CCO)CCCCC(COC(=O)CCCCCCC)COC(=O)CCCCCCC)C1CCC1 [Compound 182]	B (≥1 and <2)
CCCCCCCCCCCOC(=O)CCCCCN(CCN(CCO)CCCCC(COC(=O)CCCCCCC)COC(=O)CCCCCCC)C1CCCC1 [Compound 183]	C (≥0.1 and <1)
CCCCCCCC(=O)OCC(CCCCN(CCC)CCCCN(CCO)CCCCC(COC(=O)CCCCCCC)COC(=O)CCCCCCC)COC(=O)CCCCCCC [Compound 184]	C (≥0.1 and <1)
CCCCCCCC(=O)OCC(CCCCN(CCO)CCCCN(CCCCC(COC(=O)CCCCCCC)COC(=O)CCCCCCC)C1CCCCC1)COC(=O)CCCCCCC [Compound 185]	C (≥0.1 and <1)

SMILES	Expression over MC3
CCCCCCCCC(CCCCCCCC)CNC(=O)CCCCCN(CCCCN(CCO)CCCCC(COC(=O)CCCCCCC)COC(=O)CCCCCCC)C1CCC1 [Compound 186]	C (≥0.1 and <1)
CCCCCCCCC(CCCCCCCC)COC(=O)CCCCCN(CCCCCN(CCO)CCCCC(COC(=O)CCCCCCC)COC(=O)CCCCCCC)C1CCC1 [Compound 187]	B (≥1 and <2)
CCCCCCCCCCCNC(=O)CCCCCN(CCN(CCO)CCCCC(COC(=O)CCCCCCC)COC(=O)CCCCCCC)C1CCC1 [Compound 188]	D (<0.1)
CCCCCCCC(=O)OCC(CCCCN(CCO)CCCCN(CCCCC(COC(=O)CCCCCCC)COC(=O)CCCCCCC)C(C)C)COC(=O)CCCCCCC [Compound 189]	C (≥0.1 and <1)
CCCCCCCCC(CCCCCC)COC(=O)CCCCCN(CCCCN(CCO)CCCCC(COC(=O)CCCCCCC)COC(=O)CCCCCCC)C1CC1 (stereo not drawn) [Compound 190]	A (≥2)
CCCCCCCCC(CCCCCC)COC(=O)CCCCCN(CCCCN(CCO)CCCCC(COC(=O)CCCCCCC)COC(=O)CCCCCCC)C1CCCC1 (stereo not drawn) [Compound 191]	B (≥1 and <2)
CCCCCCCCC(CCCCCC)COC(=O)CCCCCN(CCCCN(CCO)CCCCC(COC(=O)CCCCCCC)COC(=O)CCCCCCC)C1CCCCC1 (stereo not drawn) [Compound 192]	B (≥1 and <2)
CCCCCCCCC(CCCCCC)COC(=O)CCCCCN(CCCCN(CCO)CCCCC(COC(=O)CCCCCCC)COC(=O)CCCCCCC)C1CCCCCC1 (stereo not drawn) [Compound 193]	A (≥2)
CCCCCCCCC(CCCCCC)CNC(=O)CCCCCN(CCCCN(CCO)CCCCC(COC(=O)CCCCCCC)COC(=O)CCCCCCC)C1CC1 (stereo not drawn) [Compound 195]	B (≥1 and <2)
CCCCCCCCC(CCCCCC)CNC(=O)CCCCCN(CCCCN(CCO)CCCCC(COC(=O)CCCCCCC)COC(=O)CCCCCCC)C1CCCC1 (stereo not drawn) [Compound 196]	D (<0.1)
CCCCCCCCC(CCCCCC)CNC(=O)CCCCCN(CCCCN(CCO)CCCCC(COC(=O)CCCCCCC)COC(=O)CCCCCCC)C1CCCCC1 (stereo not drawn) [Compound 197]	C (≥0.1 and <1)
CCCCCCCCC(CCCCCC)CNC(=O)CCCCCN(CCCCN(CCO)CCCCC(COC(=O)CCCCCCC)COC(=O)CCCCCCC)C1CCCCCC1 (stereo not drawn) [Compound 198]	A (≥2)
CCCCCCCCC(CCCCCC)CNC(=O)CCCCCN(CCCCN(CCO)CCCCC(COC(=O)CCCCCCC)COC(=O)CCCCCCC)C1CCCCCCC1 (stereo not drawn) [Compound 199]	A (≥2)
CCCCCCCCCCCOC(=O)CCCCCN(CCN(CCO)CCCCCC(OCCCCCCCC)OCCCCCCCC)C1CCC1 [Compound 200]	C (≥0.1 and <1)
CCCCCCCCOC(CCCCCN(CCO)CCN(CCCCCC(=O)OCC(CCCCCC)CCCCCCCC)C1CCC1)OCCCCCCCC (stereo not drawn) [Compound 201]	A (≥2)
CCCCCCCCOC(CCCCCN(CCO)CCN(CCCCCC(=O)NCC(CCCCCC)CCCCCCCC)C1CCCCCC1)OCCCCCCCC (stereo not drawn) [Compound 202]	A (≥2)
CCCCCCCCC(CCCCCC)CNC(=O)CCCCCN(CCOCCO)CCN(CCCCC(COC(=O)CCCCCCC)COC(=O)CCCCCCC)C1CCCC1 (stereo not drawn) [Compound 205]	B (≥1 and <2)
CCCCCCCCC(CCCCCC)CNC(=O)CCCCCN(CCOCCO)CCN(CCCCC(COC(=O)CCCCCCC)COC(=O)CCCCCCC)C1CCCCC1 (stereo not drawn) [Compound 206]	B (≥1 and <2)
CCCCCCCCC(CCCCCC)CNC(=O)CCCCCN(CCOCCO)CCN(CCCCC(COC(=O)CCCCCCC)COC(=O)CCCCCCC)C1CCCCCC1 (stereo not drawn) [Compound 207]	A (≥2)
